Source: paper PMC4336329 (PLoS ONE, 2015)
Among all 310,000 compounds or so, about 2,200 (0.71%) showed an effect of 50% or more. The effect is printed as a negative number. This is one part of the list.

Molecular target: human ether-à-go-go-related gene (hERG) potassium channel (human, UniProt Q12809)
Test: primary screen, population patch clamp on CHO cells stably expressing hERG

Sequence of human ether-à-go-go-related gene (hERG) potassium channel (Q12809 whole entry, looked up): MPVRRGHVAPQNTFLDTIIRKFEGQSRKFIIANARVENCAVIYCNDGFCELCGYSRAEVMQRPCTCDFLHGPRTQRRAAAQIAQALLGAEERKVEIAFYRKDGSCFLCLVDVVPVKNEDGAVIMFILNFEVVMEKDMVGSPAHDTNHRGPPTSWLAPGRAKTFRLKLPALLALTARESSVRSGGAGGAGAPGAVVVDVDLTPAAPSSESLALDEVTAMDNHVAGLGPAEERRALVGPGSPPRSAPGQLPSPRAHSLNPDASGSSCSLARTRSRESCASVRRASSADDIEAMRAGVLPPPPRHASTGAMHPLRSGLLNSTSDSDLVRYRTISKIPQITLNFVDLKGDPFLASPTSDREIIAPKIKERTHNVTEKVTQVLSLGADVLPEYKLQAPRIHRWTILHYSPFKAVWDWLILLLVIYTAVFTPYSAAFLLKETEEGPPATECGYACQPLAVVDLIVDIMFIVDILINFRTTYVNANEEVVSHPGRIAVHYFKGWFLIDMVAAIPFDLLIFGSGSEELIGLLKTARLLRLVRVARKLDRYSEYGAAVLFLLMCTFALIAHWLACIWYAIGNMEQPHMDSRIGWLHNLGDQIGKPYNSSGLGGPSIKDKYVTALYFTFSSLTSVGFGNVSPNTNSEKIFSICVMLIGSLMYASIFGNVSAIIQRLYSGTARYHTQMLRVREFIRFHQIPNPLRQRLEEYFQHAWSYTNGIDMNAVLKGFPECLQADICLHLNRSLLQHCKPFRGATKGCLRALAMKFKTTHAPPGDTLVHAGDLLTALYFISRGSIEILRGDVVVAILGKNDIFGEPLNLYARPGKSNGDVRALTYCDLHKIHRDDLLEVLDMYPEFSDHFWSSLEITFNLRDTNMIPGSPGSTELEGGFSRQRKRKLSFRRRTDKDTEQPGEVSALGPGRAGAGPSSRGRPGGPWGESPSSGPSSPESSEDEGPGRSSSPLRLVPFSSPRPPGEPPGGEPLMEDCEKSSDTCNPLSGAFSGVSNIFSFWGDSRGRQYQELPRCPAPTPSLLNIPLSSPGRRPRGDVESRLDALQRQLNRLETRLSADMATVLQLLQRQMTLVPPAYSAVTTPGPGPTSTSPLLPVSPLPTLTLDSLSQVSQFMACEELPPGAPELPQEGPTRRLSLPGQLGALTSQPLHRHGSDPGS

Structure (SMILES) | hERG current change (%, negative = inhibition) at 1uM
O=C(CSc1ccc2nnc(-c3ccccn3)n2n1)Nc1ccc2c(c1)OCO2 | 2.61%
COc1ccc(-c2cc(C(=O)Nc3cc(C)ccc3O)no2)cc1 | 12.9%
CCCCNc1ccccc1C(=O)OCC(=O)Nc1ccc(S(N)(=O)=O)cc1 | 0.586%
CCOc1ccc(-n2c(SCC(=O)Nc3ccc(Br)cc3)nc3n[nH]c(C)c3c2=N)cc1 | 11.8%
c1ccc(CC2CCN(c3nc4ccccc4n4cnnc34)CC2)cc1 | 5.45%
CN(Cc1ccccc1)C(=O)CCC1CCN(C(=O)c2ccccc2C(F)(F)F)CC1 | 12.3%
CCOC(=O)c1cc(-c2ccc(/C=C3/C(=O)NC(=O)C(C#N)=C3C)o2)ccc1Cl | 11.1%
COc1ccc(CNC(=O)COC(=O)c2cnccn2)cc1 | 11.7%
Cc1ccc(S(=O)(=O)NC(N)=NCCc2ccccc2)cc1C | -5.54%
CC1CN(C(=S)Nc2ccccc2F)CC(C)O1 (centres unmarked) | 15.7%
CCc1noc(C)c1C(=O)Nc1ccc(C(F)(F)F)cc1 | -6.89%
CN(C)c1cccc(NC(=O)CCc2ccccc2)c1 | 11%
CCc1ccc(-c2ccc(SCc3ccccn3)nn2)cc1 | 15.1%
CCC12CN3CCN(CC(C3)C1O)C2 (centres unmarked) | -9.08%
O=C1COc2ccc(C(=O)CSc3nnc(Cc4cccs4)n3-c3ccc(Cl)cc3)cc2N1 | -3.83%
O=C(NCCc1ccccn1)c1cccc(S(=O)(=O)N2CCCCCC2)c1 | -6.66%
CCc1ccccc1N(CC(=O)NC(C)c1ccccc1)S(C)(=O)=O (centres unmarked) | 16.4%
CN1C2=NCCN2C(=O)c2ccccc21 | 0.514%
O=C(C1=C(O)C(=O)N(CCN2CCOCC2)C1c1ccccc1)c1cccs1 (centres unmarked) | 12.5%
C=CCN1CCN(C(=O)c2cc3c(s2)CCC(CC)C3)CC1 (centres unmarked) | -2.2%
COC/C=C/C1=CC2=CC(=O)C(C)(OC(=O)c3cnc4ccccc4n3)C(=O)C2=CN1c1ccc(OC)cc1 (centres unmarked) | 7.97%
Cn1cnc2cc(NC(=O)c3ccc(Cl)cc3)ccc21 | 4.19%
CCOC(=O)C1=C(C)NC(C)=C(C(=O)OCC)C1c1ccc([N+](=O)[O-])s1 | 10.4%

Structure (SMILES) | hERG current change (%, negative = inhibition) at 1uM
Cc1cc(NC2CCCC2)n2nc(C)c(-c3ccccc3)c2n1 | 14.9%
CCc1nnc(-n2nc(C)cc2-c2ccccc2)n1N.Cl | -5.64%
O=C1[C@H]2[C@H](C=CC[C@H]2C(=O)N2CCOCC2)CCN1Cc1ccc(Cl)c(Cl)c1 | 5.05%
CCN(CC)CCN(C)Cc1ccc(Br)cc1 | -13.2%
Cc1cccc(NC(=O)CSc2nc(NS(=O)(=O)c3ccccc3)cc(=O)[nH]2)c1 | 15.9%
Cc1cc(C(=O)N/N=C/c2c[nH]c3ccccc23)cs1 | 10.2%
CC(CCc1ccccc1)NC(=O)Cc1ccc(Br)cc1 (centres unmarked) | 10.3%
O=C(NC1CCCCC1)C(c1ccco1)N(C(=O)c1csnn1)c1cccc(Cl)c1 (centres unmarked) | 19%
CCN(CCCNC(=O)CN(C)S(=O)(=O)c1ccc2c(c1)CCC(=O)N2)c1cccc(C)c1 | 5.48%
O=C(Nc1c(F)cc(F)cc1F)c1cccn(Cc2ccccc2)c1=O | -3.17%
CCOc1ccc2[nH]c3nc(SCC(=O)NC4CCCC4)nnc3c2c1 | 10.5%
C=CCNC(=S)NNC(=O)CSc1nc2ccccc2s1 | -10.6%
O=C(c1ccncc1)N1CCN(S(=O)(=O)c2ccc(F)cc2)CC1 | 20%
Cc1ccc(C)c(-n2c(-c3cccnc3)n[nH]c2=S)c1 | 18.2%
Cc1nc2ccccc2n1Cc1ccccc1 | 11.3%
CCCc1nc2ccccc2c(=O)n1NC(=O)c1c(O)c2ccccc2[nH]c1=O | 10.1%
COCCC(=O)N1CCC(Oc2ccc(C(=O)N3CCC[C@H]3CO)cc2)CC1 | 27.7%
CCc1n(CC(O)COC2CCCCC2)c2ccccc2[n+]1C.[I-] (centres unmarked) | 12.5%
Cc1cccc(NC(=O)CN2C(=O)N/C(=C/c3cc(C)n(C(C)C)c3C)C2=O)c1 | 4.65%
COc1ccc2cc(-c3ccn[nH]3)ccc2c1 | 15.7%
C=CCn1c(=O)c2ccccc2n2c(SCc3nc4ccccc4s3)nnc12 | 8.48%
COc1ccc2c(c1OC)C(=O)N(C(C)C(=O)O)C2=O (centres unmarked) | 12.2%
CCOC(=O)N1CCN(C2=C(NS(=O)(=O)c3ccc(NC(C)=O)cc3)C(=O)c3ccccc3C2=O)CC1 | 20%

Structure (SMILES) | hERG current change (%, negative = inhibition) at 1uM
CCN1CCN(c2nc3ccccc3nc2C(C#N)C(=O)OCc2ccccc2)CC1 (centres unmarked) | -3.43%
CCN1C(=O)C(O)(CC(=O)c2ccccn2)c2ccccc21 (centres unmarked) | 10.3%
O=C(c1ccc(Cl)c(S(=O)(=O)N2CCCCCC2)c1)N1CCN(c2ccc(O)cc2)CC1 | -1.7%
O=c1cc(-c2ccccc2)nc(SCc2ccccc2)[nH]1 | 5.52%
CC(C)CCn1c(Oc2ccc(Cl)cc2)nc2c1c(=O)n(C)c(=O)n2C | 0.337%
COc1cccc(C(=O)C2CCCN(Cc3cccn3-c3cccnc3)C2)c1 (centres unmarked) | -6.89%
C=CCNC(=O)NC(=O)COC(=O)c1cccnc1SC | 2.52%
CCCNC(=O)c1c(N)n(-c2ccc(S(N)(=O)=O)cc2)c2nc3ccccc3nc12 | 7.38%
COc1cc(-c2cc(-c3ccccc3)nc(SCC(=O)O)c2C#N)cc(OC)c1OC | 29.3%
O=C(Nc1oc2ccccc2c(=O)c1-c1ccc(Cl)cc1)c1ccco1 | 19.3%
Cc1cc(C)c(S(=O)(=O)N2CCCC(C(=O)N3CCCC3)C2)c(C)c1 (centres unmarked) | -7.05%
C/C=C(\C)C(=O)OC(C)(C)[C@@H]1Cc2cc3ccc(=O)oc3cc2O1 | 7.1%
Cc1cc(Cl)cc(C)c1OCCn1ccnc1.Cl | 5.35%
Cc1ccc2nc(SCCC(=O)O)cc(C)c2c1 | 9.13%
O=C(O)CCN1C(=O)/C(=C\c2cccc(OCc3ccccc3)c2)SC1=S | 9.47%
Cc1nn(C2CCCCC2)c(N)c1-c1ccccc1 | 8.17%
O=C(CN1C(=O)c2cccc3cccc1c23)N1CCc2ccccc2C1 | 4.01%
Cc1oc2c(c1C(=O)NC(Cc1c[nH]c3ccccc13)C(=O)O)CCCC2 (centres unmarked) | 10.2%
COC(=O)c1cc(S(=O)(=O)Nc2ccsc2C(=O)OC)oc1C | 14%
S=C1SCN(Cc2cccnc2)CN1Cc1ccccc1 | -0.777%
CCC(C(=O)OCC(=O)NC(=O)c1ccccc1)c1ccccc1 (centres unmarked) | 23.4%
O=C1NC(=O)C(c2cn(-c3ccccc3)nc2-c2ccc(F)cc2)N1 (centres unmarked) | 7.05%
O=C1CCCN1CCCNC(=S)Nc1ccccc1 | -10.2%

Structure (SMILES) | hERG current change (%, negative = inhibition) at 1uM
CCOc1ccccc1NC(=O)C1CCN(S(=O)(=O)c2cccc3cccnc23)CC1 | 2.98%
CCCCc1c(O)nc(SCC(=O)c2ccccc2)n(-c2ccccc2C)c1=O | 14.3%
CC(=O)Nc1ccc(N=Nc2ccccc2)cc1 | 3.83%
CCCn1nnnc1-c1ccc(Cl)cc1 | 14.2%
Cc1cccc(C)c1NC(=O)CCCSc1nnc(-c2ccc(F)cc2)n1-c1ccccc1 | -9.96%
CCC(c1nnnn1Cc1ccco1)N(CCc1ccccc1)Cc1cc2ccc(OC)cc2[nH]c1=O (centres unmarked) | 3.46%
Cc1ccc(N(C)S(=O)(=O)c2ccc3c(c2)CC(C)N3C(=O)C2CC2)cc1 (centres unmarked) | 15.2%
CCc1ccc2[nH]c(=O)c(C(c3nnnn3CCOC)N3CCN(c4ccccc4)CC3)cc2c1 (centres unmarked) | 6.35%
COc1ccc(C(O)P(=O)(OCC(C)C)c2ccc(N(C)C)cc2)c(OC)c1 (centres unmarked) | 4.26%
COc1ccc2cc(C(C)c3nc4ccccc4c(=O)n3N)ccc2c1 (centres unmarked) | 6.93%
Cn1nnnc1SCC(=O)Nc1ccccc1[N+](=O)[O-] | -10.1%
COc1cc(OC)cc(C(=O)Nc2c(F)cccc2F)c1 | 6.12%
Fc1ccccc1-c1nc2ncccc2o1 | -3.64%
O=C(COC(=O)/C=C/c1ccco1)NCc1ccccc1 | 15.6%
COc1ccc(NC(=O)c2cc(C)nn2-c2ccccc2)cc1 | 14%
O=C(CCNS(=O)(=O)c1ccccc1Cl)N1CCN(c2ccccn2)CC1 | -7.42%
CC(Oc1ccc2ccccc2c1)C(=O)N/N=C/c1cccnc1 (centres unmarked) | 8.17%
O=C(NCCCO)C(=O)Nc1cc2c3c(c1)CCC(=O)N3CCC2 | 24.8%
Cc1[nH]c2ccccc2c1C(C[N+](=O)[O-])c1ccco1 (centres unmarked) | 4.88%
CCCOc1ccc(N2C(=O)CC(N(Cc3ccc(S(N)(=O)=O)cc3)C(=O)CC)C2=O)cc1 (centres unmarked) | -4.58%
